The values below come from the supplement of paper PMC11417369.

The other results are listed elsewhere or left out.

In the assay the test system is PF3D7_0420300 AP2 domain 1 (GST-tagged). The assay can be described thus: gcPBM binding intensity (ln(normalized median fluorescence intensity)); higher = stronger DNA binding. In outline:
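Binding intensity is the highest Masliner-normalised natural-log median intensity over replicate spots in either probe orientation. To obtain it, GST-tagged P. falciparum DNA-binding domains made in E. coli were incubated for 1 h on an Agilent 4 × 180k array of primer-extended double-stranded 36-bp intergenic genomic probes plus negative controls. Detection used Alexa488 anti-GST antibody with scanning at 488 nm.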
For “AAGAGGTTATTACATTCACATAACATCAATATACGT [GTGCAC_negctrl_site264]”, the “gcPBM binding intensity (ln)” value amounted to 9.42.
Take “TGGGAAAACCCCAGAAGTACGCTTAATATAAAAAAT [XGTACX_site697]”: the “gcPBM binding intensity (ln)” value was found to be 8.81.
Take “GTAATGTCGTCGTTTTGTACATATTTTTATAAAAAG [XGTACX_site2688]”: the “gcPBM binding intensity (ln)” value is 9.38.
On to “TATTATAAATTAATTTTAAACTTTATTATTATGATA [GTGCAC_negctrl_site389]”, for which the “gcPBM binding intensity (ln)” value amounted to 8.92.
For “TATTAGTCGAATGATGTACACACATACAAAACATTT [CACACA_site9331]”, the “gcPBM binding intensity (ln)” value was determined as 9.52.
As for “AAAAAAAAAAAGAACTCACACATAATAATGTATATG [CACACA_site4974]”, the “gcPBM binding intensity (ln)” value worked out at 9.35.
Regarding “AAAGGAGACAGAATAAGAATAAATATTATACATATA [XGTACX_negctrl_site412]”, the “gcPBM binding intensity (ln)” value was 9.26.
The result for “TTAAAATTATATCTGTGTACATAAATTGTGTAACTA [XGTACX_site1966]” reads 9.1; that for “ATTTAAAAAAAAATGGCACACATTTTAATTTTATGT [CACACA_site1740]”, 9.07.
The result for “TTGTGTCATATATTTTGTAATCAAAATAATTTTATT [TGCATGCA_negctrl_site307]” reads 9.14; that for “TTTTTGTTTCGTTACGCATGCCAAAAGTAAAAATAT [TGCATGCA_site536]”, 9.19; that for “TTTTTAATGATCAGACGTACAGTTATGAAGAAATTT [XGTACX_site6394]”, 9.06.
Consider “ATATATTTAAATAAAAGTACGTAAAGGTATATTTAA [XGTACX_site8088]”, for which the “gcPBM binding intensity (ln)” value came out at 9.39.
On to “ATAATAAAAAAAAAATGTACATAAATCTAAAATCCT [XGTACX_site5823]”, for which the “gcPBM binding intensity (ln)” value turned out to be 9.48.
The result for “CCTCCCATTTTTACACGTACACATTTAAAATAGACT [XGTACX_site5640]” reads 9.42.
As for “TGAAGAAAATATTAATGTACATATTATATATATATA [XGTACX_site5497]”, the “gcPBM binding intensity (ln)” value came to 9.2.
As to “TGTAGTCTGGAGAAAAGTACATAGTATCTGATAACC [XGTACX_site2018]”, the “gcPBM binding intensity (ln)” value amounted to 9.36.
On to “GTGCATATATGATATACACACAATATAATAGTATGT [CACACA_site2460]”, for which the “gcPBM binding intensity (ln)” value came to 9.45.
On to “AAGAGTTTGAAGTTTGCACACTACGTTAAAAATAAA [CACACA_site3939]”, for which the “gcPBM binding intensity (ln)” value was determined as 9.16.
On to “AATATAATGTAATATACACACATATATTTCTCTTTT [CACACA_site5451]”, for which the “gcPBM binding intensity (ln)” value was determined as 9.43.
In the case of “CCACATTTTACAGACACACACAATTTATATTACGGT [CACACA_site1894]”, the “gcPBM binding intensity (ln)” value worked out at 9.7.
As for “AAAAATTTATTTTTAGGTACACAATTGAATTATTTA [XGTACX_site7008]”, the “gcPBM binding intensity (ln)” value is 8.94.
Regarding “AATTAAAAATATAAATGTACATATATGTAAAACTTT [XGTACX_site123]”, the “gcPBM binding intensity (ln)” value came to 9.35.
Turning to “CCCATGCATTTTTGCACACACATATATATATAAATA [CACACA_site1430]”, the “gcPBM binding intensity (ln)” value came to 9.63.
Turning to “AATATATGAATTAGAAGTACAAATAAATATTTATTT [XGTACX_site2062]”, the “gcPBM binding intensity (ln)” value worked out at 9.13.
Consider “TTAATCATAAAAGTCACACATAATAAGAAAAAGCTT [CACACA_site4616]”, for which the “gcPBM binding intensity (ln)” value was determined as 9.37.
With “GTATTTTTTTTAATATGTACATATAAAATATTTTAT [XGTACX_site8329]”, the “gcPBM binding intensity (ln)” value came to 9.28.
Regarding “AATACAATTTATAACACACACACAATAATACATATA [CACACA_site1252]”, the “gcPBM binding intensity (ln)” value worked out at 10.2.
Consider “ATATAAGTTTATATATGTACATATATATATTATATA [XGTACX_site2068]”, for which the “gcPBM binding intensity (ln)” value was 9.13.
As to “AATTCATTTAAAAGTTGTACAAGCTTAATAAAAAAA [XGTACX_site6073]”, the “gcPBM binding intensity (ln)” value is 9.02.
As for “ATATACACATAAAGTAGTACACCTGAAATTTTTTTT [XGTACX_site2951]”, the “gcPBM binding intensity (ln)” value is 9.33.
With “GAGGATATATTATATGTACACACATATATAACGGAT [CACACA_site8361]”, the “gcPBM binding intensity (ln)” value was 9.73.
Consider “CTAGCAAATACATACACACACACACCGATACATATA [CACACA_site9164]”, for which the “gcPBM binding intensity (ln)” value was 10.2.
The result for “ACAAGACAGATATATACACACATACATACATACATA [CACACA_site7472]” reads 9.65.
With “ATATTTATTTATATTACACACATGTGCAATTAAACT [CACACA_site6928]”, the “gcPBM binding intensity (ln)” value is 9.58.
Consider “TTTCTTAAAAAAAAAAAAAAAAGAAGATAAATAAAA [CACACA_negctrl_site289]”, for which the “gcPBM binding intensity (ln)” value came to 8.9.
Regarding “TTTAACTTATTCAATGCACACATTTTAATAAGATAT [CACACA_site1967]”, the “gcPBM binding intensity (ln)” value was determined as 9.18.
With “ATATAATAGAAGTGTACACACATATTTATGTCTGTA [CACACA_site3121]”, the “gcPBM binding intensity (ln)” value amounted to 9.48.
In the case of “ATGGATAACAATATGTGTACACATTTATATCTCCAC [XGTACX_site5457]”, the “gcPBM binding intensity (ln)” value was 9.42.
Take “AAGCATGGATATTTTACACACATTTCCACGTAACAA [CACACA_site3141]”: the “gcPBM binding intensity (ln)” value worked out at 9.56.
With “ATACATTTTTTTTATACGCACACGTCATACTTTTAA [CACACA_site1638]”, the “gcPBM binding intensity (ln)” value worked out at 9.48.
For “TCCCTAAAAAATGATAAATGGAGACAATTCCGACAA [GTGCAC_negctrl_site209]”, the “gcPBM binding intensity (ln)” value was found to be 9.15.
With “TTATATATATTTAAATTTTATCTCACATATATATAT [TGCATGCA_negctrl_site275]”, the “gcPBM binding intensity (ln)” value is 9.12.
Regarding “AATACAATTTCTAGCACACAAAATATTATTATAATT [CACACA_site3223]”, the “gcPBM binding intensity (ln)” value is 9.39.
